Experimental data from the supplement of paper PMC4466236.
Over roughly 33,000 sequences, “E-score (dimensionless, -0.5 to 0.5)” has its median near -0.058; the highest 2% begin near 0.35. The list shows a part of the results.

System: MvaT
Experiment: PBM 8-mer E-score (mean of HK and ME arrays) (E-score (dimensionless, -0.5 to 0.5)); higher = stronger relative binding preference; most listed sequences are background and not binding sites
Method in brief: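 Full-length P. aeruginosa MvaT, with glutathione S-transferase fused to its N-terminus (cloned into pTH6838 by isothermal assembly), was tested by protein binding microarray using a previously described protocol. Two universal double-stranded 60-mer arrays (ME and HK) were used, each with a constant 25-mer primer region and a variable 35-mer region covering all 8-mers. The rank-based 8-mer E-score (-0.5 to 0.5) is the mean of the two arrays, parsed with a custom Python script.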

Row | Sequence | PBM 8-mer E-score
1 | GTCACTCA | -0.105
2 | CAGGCGGA | -0.0811
3 | GCAGCTCA | -0.206
4 | CAGCGATC | -0.257
5 | TGATAACA | 0.16
6 | ACTGCGTG | -0.297
7 | GCAATCTA | 0.0472
8 | AACACCGC | 0.0298
9 | AAAATCAA | 0.18
10 | GGAACGCC | -0.268
11 | ACGGCCTG | -0.228
12 | CCACCTGA | -0.246
13 | ATTTGCAA | 0.264
14 | ATCACTAC | 0.115
15 | TGTCTTAA | 0.249
16 | AGTTCGGA | -0.0465
17 | ATTGGGTG | 0.0213
18 | ATTTTGCC | -0.0225
19 | ACAGAGAT | 0.094
20 | CACGCACG | -0.267
21 | GTCCGGAA | -0.102
22 | ACTAGGCA | -0.0711
23 | CATCGTGG | -0.114
24 | ACCGTGGG | -0.242
25 | TGCAGTAA | 0.18

Row | Sequence | PBM 8-mer E-score
26 | AGGAGGGA | -0.281
27 | GTTTCAAA | 0.102
28 | AGGTCGCA | -0.201
29 | ACGGCAGC | -0.259
30 | CGTAGTGA | -0.121
31 | ACATACTC | 0.0437
32 | AATGTAGC | 0.0524
33 | GACACCAC | -0.069
34 | AGATAAAT | 0.241
35 | AGCAACAA | 0.133
36 | ACGGTGAT | 0.0259
37 | CAACGCGC | -0.174
38 | AATATCTC | 0.253
39 | ATATTGCG | 0.326
40 | ACTCATTA | 0.241
41 | ACAGAGCA | -0.0954
42 | GTCCTCGA | -0.0957
43 | GCAACCAC | -0.0613
44 | ACCCATTG | -0.0349
45 | ACGTTGCC | -0.023
46 | CTGGTCTC | -0.117
47 | GAACTGAC | -0.103
48 | CCACTAAA | 0.0873
49 | ACAACGCA | 0.0745
50 | AGTTGGAG | -0.0398

Row | Sequence | PBM 8-mer E-score
51 | CCTAGAAC | -0.0719
52 | CCTATCTA | -0.0202
53 | AAAACCAG | -0.124
54 | ATGGAATA | 0.251
55 | CGCCTCAG | -0.17
56 | ATTTGATC | 0.234
57 | AATACCCC | -0.0253
58 | GATTGGAC | -0.197
59 | ATCCGTCG | -0.0835
60 | TAATCCCA | 0.11
61 | ATACCTAA | 0.202
62 | ATACGCCG | 0.0466
63 | TATAAATA | 0.426
64 | GGGTTTAC | -0.127
65 | CTGAGACC | -0.29
66 | GATCTCAA | -0.245
67 | ACTGGCAC | -0.172
68 | AGTGCCAA | -0.0358
69 | GGATGGCC | -0.424
70 | AGCGAGTA | 0.0914
71 | GCTCATGA | -0.248
72 | GAGGGGTA | -0.103
73 | AGAGCGAA | -0.205
74 | CATTAGAC | -0.0167
75 | AAGAAATC | 0.0897

Row | Sequence | PBM 8-mer E-score
76 | GAGAATAA | 0.24
77 | CCCCGTGA | -0.306
78 | CGCAGGTC | -0.181
79 | GGATAAAC | 0.2
80 | AAACTAGC | 0.161
81 | AAAGCACA | 0.043
82 | GGTTACAA | 0.194
83 | AACGGGCG | 0.0213
84 | AATACATA | 0.324
85 | AACCTGCA | -0.0326
86 | AAGGGACC | -0.22
87 | AACGAAAT | 0.235
88 | AGGCAACT | 0.0507
89 | TATCCTCA | 0.137
90 | AGAATGGC | 0.0244
91 | ACAACACA | 0.176
92 | CAACCGAA | 0.0498
93 | GCGGGTAC | -0.223
94 | ACGGTAAG | -0.0748
95 | ACAGCCAT | 0.00243
96 | AAGAAAGC | 0.0463
97 | AACTCCGT | 0.0106
98 | AGTTCGAT | 0.171
99 | AATGGGGG | -0.135
100 | CTGGCTCC | -0.161

Row | Sequence | PBM 8-mer E-score
101 | AGAGCCTC | -0.0999
102 | ACGGGAAG | -0.146
103 | GTTCCTTA | 0.0235
104 | CAGAGTAA | -0.081
105 | CAGAGATA | 0.0439
106 | AATGCGTC | 0.0828
107 | CGGCTACC | -0.269
108 | AGAGGCAG | -0.197
109 | AATAGTGA | 0.0562
110 | AGCACGTG | 0.0247
111 | AGGGAGTG | 0.00184
112 | ACTAGCCC | -0.207
113 | TCATCGCA | 0.0334
114 | CCAGGAAG | -0.0742
115 | GCTAGTAC | -0.067
116 | AACTGTAT | 0.158
117 | CCTCATAG | -0.113
118 | ATAGCATG | -0.0166
119 | GGATAAAA | 0.265
120 | AGACACAC | -0.00748
121 | CACGACAC | -0.102
122 | CCACAAGA | -0.147
123 | CCGGCGGC | -0.241
124 | AGGTGCGC | -0.0802
125 | CGAACCCC | -0.164

Row | Sequence | PBM 8-mer E-score
126 | ATGTTGTC | 0.295
127 | AAGTAACC | 0.0722
128 | GCGACAAC | 0.0135
129 | GTACTCCA | -0.0891
130 | GAATTCTA | 0.269
131 | GAAGTTCC | 0.0962
132 | CCAACGAA | 0.0022
133 | CTGAACCC | -0.141
134 | ATCGTATG | 0.0402
135 | CTATAAAA | 0.171
136 | TAGACCGA | 0.114
137 | CCTCATTC | -0.218
138 | GCCTAATA | 0.133
139 | ATGCGTCA | 0.124
140 | TCCAGCGA | 0.0105
141 | AACAACTA | 0.335
142 | CACGGGCC | -0.252
143 | CACGACTA | -0.105
144 | GCTAGCCA | -0.207
145 | GTTACCGA | 0.0281
146 | CTCTATGC | -0.1
147 | TAGAACAA | 0.189
148 | CGAGGAGC | -0.361
149 | GCAACTAC | 0.157
150 | CACAAACG | -0.0648

Row | Sequence | PBM 8-mer E-score
151 | CCGTGGAC | -0.204
152 | CGCGTATA | 0.169
153 | CGGATTAA | 0.275
154 | GTCCGAAC | 0.0123
155 | AGGGGCAC | -0.309
156 | CACTAGAA | -0.0936
157 | CGAATTTC | 0.148
158 | CACCTCCG | -0.176
159 | ATCTAGCG | -0.0807
160 | CCTTTGGC | -0.248
161 | AGTGGACA | 0.0462
162 | CGGGATAA | 0.109
163 | AGTTCAGG | 0.0672
164 | AGAAATTG | 0.161
165 | ACGAGCAC | -0.0926
166 | ACCTTCAA | -0.0827
167 | CCATCTCA | -0.042
168 | CAAGTCGC | -0.116
169 | AATTTTAG | 0.218
170 | AGTGCGGC | -0.222
171 | ATACGCTC | -0.054
172 | CTACTCTC | -0.17
